# Measured values published in PMC4336329 (PLoS ONE, 2015).
# The whole screen tested about 310,000 compounds, of which about 2,200 (0.71%) showed an effect of 50% or more. Effects have a minus sign here. The list shows a part of the results.
# Molecular target: human ether-à-go-go-related gene (hERG) potassium channel (human, UniProt Q12809)
# Test: primary screen, population patch clamp on CHO cells stably expressing hERG
# Chain of human ether-à-go-go-related gene (hERG) potassium channel (Q12809 whole entry, looked up): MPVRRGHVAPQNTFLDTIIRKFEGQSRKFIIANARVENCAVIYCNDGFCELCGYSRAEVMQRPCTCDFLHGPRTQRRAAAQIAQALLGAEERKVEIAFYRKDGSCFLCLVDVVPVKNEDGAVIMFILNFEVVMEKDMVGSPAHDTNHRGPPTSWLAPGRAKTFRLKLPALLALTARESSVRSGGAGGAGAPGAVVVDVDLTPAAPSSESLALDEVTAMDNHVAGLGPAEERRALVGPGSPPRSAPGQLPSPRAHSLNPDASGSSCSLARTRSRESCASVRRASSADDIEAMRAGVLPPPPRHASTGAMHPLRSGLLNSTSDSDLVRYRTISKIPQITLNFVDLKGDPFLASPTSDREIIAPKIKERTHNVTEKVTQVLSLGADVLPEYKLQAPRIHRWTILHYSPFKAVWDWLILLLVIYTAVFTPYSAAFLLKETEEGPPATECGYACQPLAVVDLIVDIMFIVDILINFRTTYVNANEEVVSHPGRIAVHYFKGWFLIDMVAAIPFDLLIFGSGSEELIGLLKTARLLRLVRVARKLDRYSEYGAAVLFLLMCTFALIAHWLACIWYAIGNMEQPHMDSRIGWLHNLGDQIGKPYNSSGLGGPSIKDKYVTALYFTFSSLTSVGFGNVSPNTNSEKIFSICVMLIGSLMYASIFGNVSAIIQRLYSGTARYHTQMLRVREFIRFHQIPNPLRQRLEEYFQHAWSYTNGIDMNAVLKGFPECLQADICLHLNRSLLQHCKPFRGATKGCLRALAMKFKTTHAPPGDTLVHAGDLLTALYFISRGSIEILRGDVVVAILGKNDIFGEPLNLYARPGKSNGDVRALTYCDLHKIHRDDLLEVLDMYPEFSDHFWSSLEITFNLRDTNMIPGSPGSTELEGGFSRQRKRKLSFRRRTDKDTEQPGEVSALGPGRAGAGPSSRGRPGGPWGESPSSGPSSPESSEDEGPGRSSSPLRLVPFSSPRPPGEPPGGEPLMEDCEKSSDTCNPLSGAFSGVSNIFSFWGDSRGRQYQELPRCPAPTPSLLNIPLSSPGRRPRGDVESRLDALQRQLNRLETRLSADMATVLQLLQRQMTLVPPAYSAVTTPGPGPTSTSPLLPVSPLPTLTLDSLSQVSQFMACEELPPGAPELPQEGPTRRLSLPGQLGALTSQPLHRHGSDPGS
row,Compound,"hERG current change (%, negative = inhibition) at 1uM"
1,COc1ccc(/C=C/C(=O)N(C)Cc2cccs2)cc1S(=O)(=O)N1CCOCC1,4.47%
2,CCCCCn1c(=O)[nH]c2cc(C(=O)NC3CCN(Cc4ccccc4)CC3)ccc2c1=O,11.4%
3,COc1ccccc1NC(=O)C(C(C)C)N1C(=O)c2ccccc2C1=O (stereo not shown),16.7%
4,CN1CC(=O)N(CC(=O)NCCc2ccc(F)cc2)c2ccccc2C1=O,7.72%
5,N/C(Cc1cccs1)=N\OC(=O)COc1ccccc1Cl,15.3%
6,O=C(O)C1CC=CCC1C(=O)NCCCN1CCCC1=O (stereo not shown),7.05%
7,COc1ccc2[nH]cc(CCNS(=O)(=O)c3ccc(C)cc3)c2c1,-8.15%
8,CCOc1ccccc1N(CC(=O)NCCSc1ccccn1)S(=O)(=O)c1ccc(C)cc1,2.87%
9,CCOC(=O)C1=C(C)C2C3C(=O)N(c4ccc(C)cc4C)C(=O)C3C1(C)C1C(=O)N(c3ccc(C)cc3C)C(=O)C21 (stereo not shown),5.73%
10,CCOC(=O)c1c(NC(N)=O)sc(C)c1C,3.81%
11,CC/C(=N\NC(=O)OC)c1ccc(OC(F)F)cc1,6.73%
12,Cc1cc(-c2n[nH]c(=S)n2/N=C/C=C/c2ccco2)n[nH]1,17%
13,CCN1CCN(C(c2nnnn2Cc2ccc3c(c2)OCO3)C(C)C)CC1.Cl (stereo not shown),-1.74%
14,C/C(=N\NC(=O)c1nc2ccccn2c1C)c1ccc2c(c1)OCO2,-6.32%
15,O=C(OCc1ccccc1Cl)c1cccnc1Cl,-13.8%
16,Cc1cc(C=O)c(C)n1-c1ccc(N2CCOCC2)cc1,1.86%
17,COc1ccc(-n2cnc3c(sc4nc(N5CCOCC5)c5c(c43)CCCC5)c2=O)cc1,15.2%
18,C=C(C)CSc1nnc([C@@H](N)Cc2ccccc2)o1.Cl,12.9%
19,Cc1cc(/C=c2/sc3nc4ccccc4n3c2=O)c(C)n1-c1ccccn1,0.357%
20,Cc1cc(NC(=O)Cn2nc(C)c([N+](=O)[O-])c2C)no1,4.75%
21,COc1cccc(-n2c(SC3CCOC3=O)nc3ccccc3c2=O)c1 (stereo not shown),3.61%
22,COc1ccc(-c2nc3cc(C)ccn3c2NCc2ccc3c(c2)OCO3)cc1,-6.34%
23,CC(=O)NC1=NC(=O)/C(=C/N2CCOCC2)S1,12.1%
24,Cn1cccc1C(=O)NCC1CCCCC1,13.1%
25,O=C(O)C1CCC1C(=O)Nc1nc(-c2ccc(Cl)s2)cs1 (stereo not shown),12.4%
